Changes are numbered by the printed parent chain; changes in the protein carry UniProt numbers. The list shows a part of the results.

The results in this text go back to publication PMC9911399, “Two distinct binding modes provide the RNA-binding protein RbFox with extraordinary sequence specificity”.

B1: GAGAUGA (DNA:RNA)
RNA: GGGAGACCGGAAUUCAGAUUGUCCGAGAUGAUUAAAUCCCGUCGUAGCCACCA
DNA 1: CAATCTGAATTCCGGTCTCCC
DNA 2: TGGTGGCTACGACGGGATT
B2: GAUAGCG (DNA:RNA)
RNA: B1 RNA with G27U, U29G, G30C, A31G
DNA 1: CAATCTGAATTCCGGTCTCCC
DNA 2: TGGTGGCTACGACGGGATT
B3: UGUGCGG (DNA:RNA)
RNA: B1 RNA with G25U, A26G, G27U, A28G, U29C, A31G
DNA 1: CAATCTGAATTCCGGTCTCCC
DNA 2: TGGTGGCTACGACGGGATT
B4: AGGAUUG (DNA:RNA)
RNA: B1 RNA with G25A, A26G, G30U, A31G
DNA 1: CAATCTGAATTCCGGTCTCCC
DNA 2: TGGTGGCTACGACGGGATT
B5: CUUUUAG (DNA:RNA)
RNA: B1 RNA with G25C, A26U, G27U, A28U, G30A, A31G
DNA 1: CAATCTGAATTCCGGTCTCCC
DNA 2: TGGTGGCTACGACGGGATT
B6: GGUAGUC (DNA:RNA)
RNA: B1 RNA with A26G, G27U, U29G, G30U, A31C
DNA 1: CAATCTGAATTCCGGTCTCCC
DNA 2: TGGTGGCTACGACGGGATT
B7: CCAGCGC (DNA:RNA)
RNA: B1 RNA with G25C, A26C, G27A, A28G, U29C, A31C
DNA 1: CAATCTGAATTCCGGTCTCCC
DNA 2: TGGTGGCTACGACGGGATT
B8: AGGGUUA (DNA:RNA)
RNA: B1 RNA with G25A, A26G, A28G, G30U
DNA 1: CAATCTGAATTCCGGTCTCCC
DNA 2: TGGTGGCTACGACGGGATT
B9: ACUCCGA (DNA:RNA)
RNA: B1 RNA with G25A, A26C, G27U, A28C, U29C
DNA 1: CAATCTGAATTCCGGTCTCCC
DNA 2: TGGTGGCTACGACGGGATT
B10: GGGACCA (DNA:RNA)
RNA: B1 RNA with A26G, U29C, G30C
DNA 1: CAATCTGAATTCCGGTCTCCC
DNA 2: TGGTGGCTACGACGGGATT
B11: GUGGGUG (DNA:RNA)
RNA: B1 RNA with A26U, A28G, U29G, G30U, A31G
DNA 1: CAATCTGAATTCCGGTCTCCC
DNA 2: TGGTGGCTACGACGGGATT
B12: GUUAGUG (DNA:RNA)
RNA: B1 RNA with A26U, G27U, U29G, G30U, A31G
DNA 1: CAATCTGAATTCCGGTCTCCC
DNA 2: TGGTGGCTACGACGGGATT
B13: GGUUAAA (DNA:RNA)
RNA: B1 RNA with A26G, G27U, A28U, U29A, G30A
DNA 1: CAATCTGAATTCCGGTCTCCC
DNA 2: TGGTGGCTACGACGGGATT
B14: GUGUUCC (DNA:RNA)
RNA: B1 RNA with A26U, A28U, G30C, A31C
DNA 1: CAATCTGAATTCCGGTCTCCC
DNA 2: TGGTGGCTACGACGGGATT
B15: GUCACGA (DNA:RNA)
RNA: B1 RNA with A26U, G27C, U29C
DNA 1: CAATCTGAATTCCGGTCTCCC
DNA 2: TGGTGGCTACGACGGGATT
B16: GAAUUGC (DNA:RNA)
RNA: B1 RNA with G27A, A28U, A31C
DNA 1: CAATCTGAATTCCGGTCTCCC
DNA 2: TGGTGGCTACGACGGGATT
B17: GGCAGCA (DNA:RNA)
RNA: B1 RNA with A26G, G27C, U29G, G30C
DNA 1: CAATCTGAATTCCGGTCTCCC
DNA 2: TGGTGGCTACGACGGGATT
B18: CCUCUUU (DNA:RNA)
RNA: B1 RNA with G25C, A26C, G27U, A28C, G30U, A31U
DNA 1: CAATCTGAATTCCGGTCTCCC
DNA 2: TGGTGGCTACGACGGGATT
B19: GCCCAGA (DNA:RNA)
RNA: B1 RNA with A26C, G27C, A28C, U29A
DNA 1: CAATCTGAATTCCGGTCTCCC
DNA 2: TGGTGGCTACGACGGGATT
B20: CCUCCGG (DNA:RNA)
RNA: B1 RNA with G25C, A26C, G27U, A28C, U29C, A31G
DNA 1: CAATCTGAATTCCGGTCTCCC
DNA 2: TGGTGGCTACGACGGGATT

For the test, the target named is T1, RBFOX1 RRM RbFoxmut (Fox-RRM*) (Homo sapiens, UniProt Q9NWB1 109-208, R118D;E147R;N151S;E152T).
T1 sequence: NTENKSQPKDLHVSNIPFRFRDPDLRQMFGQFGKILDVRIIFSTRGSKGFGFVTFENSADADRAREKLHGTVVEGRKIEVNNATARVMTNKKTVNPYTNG
The experiment in a line: EMSA; HiTS-Eq, 1 nM pool, 10 min; buffer printed only for the single-RNA assays: 10 mM Tris pH 7.5, 150 mM NaCl, 3.4 mM EDTA, 0.001% NP-40, 30 C. The settings on record: tags: His6 N-terminal (pET28a); label: 5' 32P. The procedure, abridged: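 Purified RbFox RRM (wild type or mutant) was equilibrated for 10 min in 50 µL with 1 nM of a 5′-radiolabelled pool of RNA with 7 randomized nucleotides, its flanks annealed to DNA oligonucleotides, across increasing protein concentrations. Free RNA was separated by 8% native PAGE, excised, reverse-transcribed, PCR-barcoded and sequenced on an Illumina HiSeq 2500. Relative association constants came from read-count changes of each variant against the control reaction, normalised to the cognate motif.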
Background: Mobility shift assays separate free from complexed probe on a gel.
Turning to B1, the binding signal is 0.0886 KA relative to UGCAUGU. The figure for B2 is 0.105 KA relative to UGCAUGU; for B3 it is 0.122 KA relative to UGCAUGU.

On to B4, for which the binding signal is 0.583 KA relative to UGCAUGU. For B5, the binding signal is 0.144 KA relative to UGCAUGU. The figure for B6 is 0.199 KA relative to UGCAUGU; for B7 it is 0.111 KA relative to UGCAUGU. The figure for B8 is 0.123 KA relative to UGCAUGU. As to B9, the binding signal is 0.0776 KA relative to UGCAUGU. B10: the binding signal is 0.0856 KA relative to UGCAUGU. The figure for B11 is 0.349 KA relative to UGCAUGU. As to B12, the binding signal was 0.155 KA relative to UGCAUGU.

Take B13: the binding signal is 0.0723 KA relative to UGCAUGU. To B14 belongs 0.0879 KA relative to UGCAUGU; to B15, 0.0957 KA relative to UGCAUGU; to B16, 0.119 KA relative to UGCAUGU.

For B17, the binding signal was 0.108 KA relative to UGCAUGU. To B18 belongs 0.0921 KA relative to UGCAUGU. As to B19, the binding signal is 0.0922 KA relative to UGCAUGU. As for B20, the binding signal was 0.0622 KA relative to UGCAUGU.
